Measurements from PMC4336329 (PLoS ONE, 2015).
Out of some 310,000 compounds screened, about 2,200 (0.71%) showed an effect of 50% or more. The effect is printed as a negative number. This is one part of the list.

The compounds below were run against human ether-à-go-go-related gene (hERG) potassium channel (human, UniProt Q12809) (assay: primary screen, population patch clamp on CHO cells stably expressing hERG).
Sequence of human ether-à-go-go-related gene (hERG) potassium channel (Q12809 whole entry, looked up): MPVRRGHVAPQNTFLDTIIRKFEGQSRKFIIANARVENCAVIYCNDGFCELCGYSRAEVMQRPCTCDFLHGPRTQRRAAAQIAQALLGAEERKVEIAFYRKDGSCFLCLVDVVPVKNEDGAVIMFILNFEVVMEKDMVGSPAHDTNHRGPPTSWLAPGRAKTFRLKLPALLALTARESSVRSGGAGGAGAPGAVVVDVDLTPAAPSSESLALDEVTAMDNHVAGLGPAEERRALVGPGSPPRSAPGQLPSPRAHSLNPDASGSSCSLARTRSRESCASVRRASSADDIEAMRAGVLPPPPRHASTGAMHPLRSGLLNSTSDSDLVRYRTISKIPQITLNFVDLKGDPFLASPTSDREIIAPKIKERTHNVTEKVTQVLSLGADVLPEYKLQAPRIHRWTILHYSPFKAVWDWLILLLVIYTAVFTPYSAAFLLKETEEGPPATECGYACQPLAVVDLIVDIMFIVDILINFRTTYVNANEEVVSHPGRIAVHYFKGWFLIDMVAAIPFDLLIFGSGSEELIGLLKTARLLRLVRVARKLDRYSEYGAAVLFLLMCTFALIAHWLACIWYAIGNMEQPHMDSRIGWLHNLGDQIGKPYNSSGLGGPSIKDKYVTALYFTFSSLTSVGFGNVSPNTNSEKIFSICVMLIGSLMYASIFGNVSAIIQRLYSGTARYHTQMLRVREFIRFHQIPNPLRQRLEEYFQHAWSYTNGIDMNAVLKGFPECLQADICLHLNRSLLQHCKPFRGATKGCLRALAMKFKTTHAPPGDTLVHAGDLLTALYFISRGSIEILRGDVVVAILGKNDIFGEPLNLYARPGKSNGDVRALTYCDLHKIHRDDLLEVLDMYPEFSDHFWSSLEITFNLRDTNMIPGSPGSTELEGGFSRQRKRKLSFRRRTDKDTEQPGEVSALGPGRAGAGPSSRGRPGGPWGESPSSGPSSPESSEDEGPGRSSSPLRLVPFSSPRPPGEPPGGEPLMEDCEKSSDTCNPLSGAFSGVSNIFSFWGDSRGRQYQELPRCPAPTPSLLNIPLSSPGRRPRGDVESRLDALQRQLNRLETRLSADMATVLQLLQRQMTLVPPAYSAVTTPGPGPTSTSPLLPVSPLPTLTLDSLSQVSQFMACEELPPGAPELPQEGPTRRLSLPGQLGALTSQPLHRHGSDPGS

Compound	hERG current change (%, negative = inhibition) at 1uM [%]
NC1CCN(c2c(F)cc3c(=O)c(C(=O)O)cn(C4CC4)c3c2Cl)C1 (centres unmarked)	7.46
COc1cc(C(=O)NCC(=O)NNC(=O)C2COc3ccccc3O2)cc(OC)c1OC (centres unmarked)	13
O=C(Nc1cccc(-n2cccn2)c1)C1CCCN(Cc2cccc(F)c2F)C1 (centres unmarked)	8.5
O=C(CCc1c[nH]c2ccccc12)NN1C(=O)NC2(CCCCC2)C1=O	6.06
CC(=O)N1CCN(c2ccc(NC(=O)c3ccco3)cc2)CC1	-3.25
COc1cc(NC(=S)NNC(=O)CC(C)C)c(OC)cc1Cl	7.05
COC(=O)CC1=NN(c2ccc(OC)cc2)C(=O)/C1=C\c1ccc(Cl)cc1	10.4
Cc1[nH]c2ccccc2c1N=Nc1cccc(C(=O)O)c1	11.9
CC1CCCCN1C(=O)CSc1nc(-c2ccccc2)cn1N (centres unmarked)	-0.277
CCNS(=O)(=O)c1ccc(C(=O)OCc2cc(=O)oc3cc(OC)ccc23)cc1	8.38
COc1ccc(C)cc1NC(=O)c1ccccc1N(C)S(=O)(=O)c1ccccc1	9.88
Cc1cccn2c(=O)c(C=O)c(N3CCSCC3)nc12	8.95
COc1cc(OC)cc(-c2nnc(SCC(=O)N3CCOCC3)o2)c1	14
CCS(=O)(=O)N1CCCC(C(=O)NC2CCC(C)CC2)C1 (centres unmarked)	0.0198
C/C(=N\Nc1ccc(C(=O)O)cc1)c1ccc2c(c1)Nc1ccccc1S2.O=S(=O)(O)O	-10.4
Cc1cc(NS(=O)(=O)c2ccc(NC(=O)C(C)N3C(=O)c4ccccc4C3=O)cc2)nc(C)n1 (centres unmarked)	-1.69
CCCCc1nc2ccccc2c(C(=O)O)c1C	5.75
CCOC(=O)C1(P(=O)(c2ccccc2)c2ccccc2)CCC1	14
O=C(NCC(c1ccco1)N1CCc2ccccc21)C(=O)Nc1ccc(F)cc1F (centres unmarked)	-3.87

Compound	hERG current change (%, negative = inhibition) at 1uM [%]
CCOC(=O)c1cnc(Nc2nc3ccccc3o2)nc1CSc1ncccn1	1.37
CCn1nnc(NC(=O)c2cccc(-c3cc4ccccc4oc3=O)c2)n1	-2.15
CCN(C(=O)COC(=O)CCCOc1ccccc1)c1c(N)n(Cc2ccccc2)c(=O)[nH]c1=O	14.2
COC(=O)Cn1c(=O)c(C(=O)CCl)c(N)n(Cc2ccccc2)c1=O	3.71
CCC(C)C(NS(=O)(=O)c1ccc(C)cc1)C(=O)O (centres unmarked)	7.72
O=C(OCn1ncc(Cl)c(Cl)c1=O)c1ccccc1Cl	12.9
CCOc1ccc(C(C(=O)NCC2CCCO2)N(C(=O)c2snc(C(N)=O)c2N)c2cccc(F)c2)cc1 (centres unmarked)	17.7
COCCCNC(=O)C1CCN(S(=O)(=O)N(CC(C)C)CC(C)C)CC1	3.85
COc1ccc(N2CCN(Cc3nnc(-c4ccccc4)o3)CC2)cc1	12.2
COc1ccccc1NC(=O)CCn1c(=O)sc2ccccc21	2.53
COC(=O)C1=C(COc2ccccc2)NC(=O)NC1c1ccc(Cl)cc1 (centres unmarked)	10.1
COCCNC(=O)CSc1nnc(NC(=O)C2CC(=O)N(c3ccccc3OC)C2)s1 (centres unmarked)	15.3
Cc1cccn(Cc2c(Cl)cccc2Cl)c1=O	-5.06
COC(=O)C1=C(C)NC(C)=C(C(=O)OC)C1c1ccc(N(C)C)cc1	2.4
Cc1ccc(C2CC2C(=O)NN)cc1 (centres unmarked)	0.591
COCCn1nnnc1C(CC(C)C)N1CCN(c2ccccc2)CC1 (centres unmarked)	10.7
CC(NC(=O)Cc1ccccc1[N+](=O)[O-])c1ccccc1 (centres unmarked)	8.34
COc1cc(S(=O)(=O)N2CCN=C2c2ccccc2)ccc1F	-2.63
COc1ccc(-c2nc3c(n2O)CCCC3=O)cc1OC	13.8

Compound	hERG current change (%, negative = inhibition) at 1uM [%]
Cc1cc(C)cc(NC(=O)c2nccnc2C(=O)O)c1	4.8
Cc1ccc(S(=O)(=O)C2(C(=O)NC3CCCCC3C)CC2)cc1 (centres unmarked)	6.18
COc1cccc(C(=O)N(Cc2ccco2)c2c(N)n(Cc3ccccc3)c(=O)[nH]c2=O)c1	12.9
COCCC(=O)N1CCCC(C(=O)c2ccc(C(F)(F)F)cc2)C1 (centres unmarked)	12.8
CN(C(=O)COC(=O)CCc1c[nH]c2ccccc12)c1ccccc1	14.9
COc1ccccc1C1/C(=C(\O)c2ccc3c(c2)OCCO3)C(=O)C(=O)N1CCCn1ccnc1 (centres unmarked)	14
Cc1ccc(NS(=O)(=O)c2ccccc2F)cc1S(=O)(=O)N1CCCCC1	6.79
Cc1cc(Nc2cccc(Cl)c2)nc(NCc2ccccc2)n1	21.2
Cc1ccc(C2=NN(C(=O)CSc3nnnn3C)C(c3ccco3)C2)cc1 (centres unmarked)	12.1
Oc1ccc2nc(Cc3ccccc3)[nH]c2c1	13
O=S(=O)(c1cnc(Cl)c(Br)c1)N1CCCCCC1	1.04
COC(=O)C1N[C@@H]([C@@H](NC(=O)COc2ccccc2)C(=O)NCc2ccc(OC)cc2)SC1(C)C (some centres unmarked)	15.5
COc1ccc(S(=O)(=O)N2CCN(C3Cc4ccccc4C3)CC2)cc1	11
CCC(=O)N1c2ccccc2[C@@H](N(C(C)=O)c2ccccc2)C[C@H]1C	5.94
O=c1cc(-c2ccccc2)[nH]c2[nH]n(-c3ccccc3)c(=O)c12	-11.6
Cc1cccc(C(=O)OCC(=O)c2ccc3c(c2)OCO3)c1O	11.8
CC(c1nc2ccccc2c(=O)[nH]1)N1CCOCC1 (centres unmarked)	6.16
Cc1ccc(C(=O)Nc2ccccc2C(=O)NCc2ccco2)cc1S(=O)(=O)N1CCCCC1	9.27
